Molecular target: T1, human IL-13 receptor alpha 1 on THP-1 cells (human, UniProt P78552 22-427)
T1 sequence (looked up): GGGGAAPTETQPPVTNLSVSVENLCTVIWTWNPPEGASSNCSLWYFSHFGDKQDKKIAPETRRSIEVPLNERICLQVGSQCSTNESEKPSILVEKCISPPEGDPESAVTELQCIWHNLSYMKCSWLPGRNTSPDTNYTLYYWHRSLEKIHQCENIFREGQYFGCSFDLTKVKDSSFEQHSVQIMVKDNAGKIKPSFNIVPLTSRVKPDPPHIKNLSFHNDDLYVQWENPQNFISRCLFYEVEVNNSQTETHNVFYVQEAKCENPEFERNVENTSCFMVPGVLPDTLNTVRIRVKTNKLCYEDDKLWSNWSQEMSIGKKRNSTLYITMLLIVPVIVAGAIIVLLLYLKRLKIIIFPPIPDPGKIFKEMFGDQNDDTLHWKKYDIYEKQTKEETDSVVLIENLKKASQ
Experiment: cell-based or functional assay

B1: human wild-type IL-13 (ligand)
chain: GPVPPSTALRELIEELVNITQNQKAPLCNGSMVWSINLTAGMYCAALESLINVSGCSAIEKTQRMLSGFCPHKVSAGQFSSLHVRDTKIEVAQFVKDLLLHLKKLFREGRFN
modifications: biotinylated in the Ra2 inhibition assays
  IL-13-induced Stat 6 phosphorylation in THP-1 cells (flow cytometry), EC50: 0.332 ng/mL

From patent US20100111959A1 (Janssen / Centocor, published 2010)
